A lower IC50 marks a more sensitive line; a limit (>, <) means that the fit lies beyond the doses tested. The AUC spans the tested range (256-fold, ending at the top dose) of the same fit: 1 means no effect, lower means more sensitive. For some assays here: The top dose, if marked as inferred, was calculated from the reported fits.
Tests used:
Experiment in all cases: Viability of human cancer cell lines after 72 h of drug (GDSC screen)
QL-XI-92 = compound: C=CC(=O)Nc1cc(NC(=O)c2ccc(C)c(NC(=O)c3ccno3)c2)cc(C(F)(F)F)c1 [QL-XI-92]; conditions: top dose 10.24 µM; top dose inferred
Protocol: (§1)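 Human cancer cell lines in 384-well plates, medium with 10% serum, drug for 72 h over a 256-fold dose range (nine 2-fold or five 4-fold steps up to the top dose). Adherent lines were fixed and stained with the nucleic acid dye Syto60, suspension lines read with resazurin; signal relative to control wells, capped at 0 and 100%. One two-parameter sigmoid per drug and line, fitted in a mixed model over all curves with the slope shared within a line.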

Vinorelbine = compound: CCC1=C[C@@H]2CN(C1)Cc1c([nH]c3ccccc13)[C@@](C(=O)OC)(c1cc3c(cc1OC)N(C)[C@H]1[C@@](O)(C(=O)OC)[C@H](OC(C)=O)[C@]4(CC)C=CCN5CC[C@]31[C@@H]54)C2 [Vinorelbine]; conditions: top dose 0.064 µM; top dose inferred
Protocol: as §1

AG-014699 = compound: CNCc1ccc(-c2[nH]c3cc(F)cc4c3c2CCNC4=O)cc1 [AG-014699]; conditions: top dose 5 µM; top dose inferred
Protocol: as §1

XL-184 = compound: COc1cc2nccc(Oc3ccc(NC(=O)C4(C(=O)Nc5ccc(F)cc5)CC4)cc3)c2cc1OC [XL-184]; conditions: top dose 5.12 µM; top dose inferred
Protocol: as §1

WHI-P97 = compound: COc1cc2ncnc(Nc3cc(Br)c(O)c(Br)c3)c2cc1OC [WHI-P97]; conditions: top dose 10.24 µM; top dose inferred
Protocol: as §1

Gefitinib = compound: COc1cc2ncnc(Nc3ccc(F)c(Cl)c3)c2cc1OCCCN1CCOCC1 [Gefitinib]; conditions: top dose 0.5 µM
Protocol: as §1

Phenformin = compound: N=C(N)NC(=N)NCCc1ccccc1 [Phenformin]; conditions: top dose 4000 µM; top dose inferred
Protocol: as §1

EHT 1864 = compound: O=c1cc(CN2CCOCC2)occ1OCCCCCSc1ccnc2cc(C(F)(F)F)ccc12 [EHT 1864]; conditions: top dose 10 µM; top dose inferred
Protocol: as §1

NU-7441 = compound: O=c1cc(N2CCOCC2)oc2c(-c3cccc4c3sc3ccccc34)cccc12 [NU-7441]; conditions: top dose 2 µM; top dose inferred
Protocol: as §1

| Cell Line | AUC (QL-XI-92) | IC50 (QL-XI-92) [µM] | AUC (Vinorelbine) | IC50 (Vinorelbine) [µM] | AUC (AG-014699) | IC50 (AG-014699) [µM] | AUC (XL-184) | IC50 (XL-184) [µM] | AUC (WHI-P97) | IC50 (WHI-P97) [µM] | AUC (Gefitinib) | IC50 (Gefitinib) [µM] | AUC (Phenformin) | IC50 (Phenformin) [µM] | AUC (EHT 1864) | IC50 (EHT 1864) [µM] | AUC (NU-7441) | IC50 (NU-7441) [µM] |
| --- | --- | --- | --- | --- | --- | --- | --- | --- | --- | --- | --- | --- | --- | --- | --- | --- | --- | --- |
| RCM-1 (large intestine, adherent) | 0.983 | > 10.2 | 0.941 | > 0.064 | 0.955 | > 5 | 0.981 | > 5.12 | 0.977 | > 10.2 | 0.958 | > 0.5 | 0.634 | 636 | 0.916 | > 10 | 0.975 | > 2 |
| RERF-LC-KJ (lung adenocarcinoma, adherent) | 0.983 | > 10.2 | 0.621 | 0.00868 | 0.969 | > 5 | 0.955 | > 5.12 | 0.983 | > 10.2 | 0.947 | > 0.5 | 0.801 | 2020 | 0.98 | > 10 | 0.94 | > 2 |
| RERF-LC-MS (lung adenocarcinoma, adherent) | 0.985 | > 10.2 | 0.673 | 0.0123 | 0.962 | > 5 | 0.859 | 4.45 | 0.936 | > 10.2 | 0.987 | > 0.5 | 0.979 | > 4000 | 0.941 | > 10 | 0.987 | > 2 |
| RERF-LC-Sq1 (lung squamous cell carcinoma, adherent) | 0.951 | > 10.2 | 0.95 | > 0.064 | 0.948 | > 5 | 0.947 | > 5.12 | 0.973 | > 10.2 | 0.82 | 0.484 | 0.771 | 2310 | 0.85 | > 10 | 0.894 | > 2 |
| RF-48 (stomach, adherent) | 0.874 | > 10.2 | 0.516 | 0.00444 | 0.976 | > 5 | 0.87 | > 5.12 | 0.884 | > 10.2 | 0.95 | > 0.5 | 0.966 | > 4000 | 0.918 | > 10 | 0.98 | > 2 |
| RH-41 (rhabdomyosarcoma, adherent) | 0.992 | > 10.2 | 0.682 | 0.0117 | 0.99 | > 5 | 0.992 | > 5.12 | 0.991 | > 10.2 | 0.987 | > 0.5 | 0.983 | > 4000 | 0.948 | > 10 | 0.93 | > 2 |
| RKN (ovary, adherent) | 0.969 | > 10.2 | 0.813 | 0.037 | 0.977 | > 5 | 0.982 | > 5.12 | 0.931 | > 10.2 | 0.98 | > 0.5 | 0.8 | 2070 | 0.982 | > 10 | 0.962 | > 2 |
| RO82-W-1 (thyroid, adherent) | 0.983 | > 10.2 | 0.957 | > 0.064 | 0.966 | > 5 | 0.963 | > 5.12 | 0.977 | > 10.2 | 0.978 | > 0.5 | 0.953 | > 4000 | 0.93 | > 10 | 0.938 | > 2 |
| RPMI-2650 (head and neck, adherent) | 0.965 | > 10.2 | 0.662 | 0.0117 | 0.941 | > 5 | 0.893 | > 5.12 | 0.964 | > 10.2 | 0.985 | > 0.5 | 0.809 | 2300 | 0.943 | > 10 | 0.973 | > 2 |
| RPMI-7951 (melanoma, adherent) | 0.898 | > 10.2 | 0.646 | 0.01 | 0.977 | > 5 | 0.903 | > 5.12 | 0.983 | > 10.2 | 0.985 | > 0.5 | 0.373 | 113 | 0.979 | > 10 | 0.942 | > 2 |
| RVH-421 (melanoma, adherent) | 0.903 | > 10.2 | 0.478 | 0.00341 | 0.947 | > 5 | 0.932 | > 5.12 | 0.962 | > 10.2 | 0.972 | > 0.5 | 0.736 | 1540 | 0.958 | > 10 | 0.928 | > 2 |
| SAS (head and neck, adherent) | 0.944 | > 10.2 | 0.984 | > 0.064 | 0.963 | > 5 | 0.874 | > 5.12 | 0.84 | 8.24 | 0.891 | > 0.5 | 0.795 | 2090 | 0.896 | > 10 | 0.979 | > 2 |
| SAT (head and neck, adherent) | 0.975 | > 10.2 | 0.925 | > 0.064 | 0.964 | > 5 | 0.909 | > 5.12 | 0.963 | > 10.2 | 0.695 | 0.15 | 0.925 | > 4000 | 0.91 | > 10 | 0.927 | > 2 |
| SBC-3 (small cell lung carcinoma, adherent) | 0.612 | 1.26 | 0.542 | 0.00515 | 0.952 | > 5 | 0.9 | > 5.12 | 0.958 | > 10.2 | 0.989 | > 0.5 | 0.882 | 3560 | 0.972 | > 10 | 0.984 | > 2 |
| SBC-5 (small cell lung carcinoma, adherent) | 0.993 | > 10.2 | 0.463 | 0.00323 | 0.972 | > 5 | 0.978 | > 5.12 | 0.993 | > 10.2 | 0.993 | > 0.5 | 0.87 | 2600 | 0.924 | > 10 | 0.993 | > 2 |
| SCC-9 (head and neck, adherent) | 0.876 | > 10.2 | 0.425 | 0.00236 | 0.968 | > 5 | 0.799 | 3.29 | 0.8 | 6.63 | 0.968 | > 0.5 | 0.544 | 341 | 0.924 | > 10 | 0.975 | > 2 |
| SCC-25 (head and neck, adherent) | 0.918 | > 10.2 | 0.64 | 0.0103 | 0.971 | > 5 | 0.818 | 3.38 | 0.866 | > 10.2 | 0.904 | > 0.5 | 0.299 | 62.4 | 0.941 | > 10 | 0.98 | > 2 |
| SF268 (glioma, adherent) | 0.91 | > 10.2 | 0.7 | 0.0153 | 0.921 | > 5 | 0.951 | > 5.12 | 0.977 | > 10.2 | 0.985 | > 0.5 | 0.964 | > 4000 | 0.975 | > 10 | 0.973 | > 2 |
| SF295 (glioma, adherent) | 0.955 | > 10.2 | 0.666 | – | 0.945 | > 5 | 0.912 | > 5.12 | 0.985 | > 10.2 | 0.945 | > 0.5 | 0.834 | 2890 | 0.871 | > 10 | 0.964 | > 2 |
| SF539 (glioma, adherent) | 0.851 | 6.64 | 0.677 | 0.0118 | 0.935 | > 5 | 0.878 | 4.28 | 0.976 | > 10.2 | 0.988 | > 0.5 | 0.726 | 1010 | 0.96 | > 10 | 0.974 | > 2 |
| SJRH30 (rhabdomyosarcoma, adherent) | 0.831 | 6.77 | 0.724 | 0.0177 | 0.921 | > 5 | 0.986 | > 5.12 | 0.986 | > 10.2 | 0.986 | > 0.5 | 0.833 | 2700 | 0.926 | > 10 | 0.969 | > 2 |
| SK-HEP-1 (liver, adherent) | 0.988 | > 10.2 | 0.54 | 0.00509 | 0.983 | > 5 | 0.96 | > 5.12 | 0.977 | > 10.2 | 0.966 | > 0.5 | 0.94 | > 4000 | 0.975 | > 10 | 0.989 | > 2 |
| SK-MEL-3 (melanoma, adherent) | 0.96 | > 10.2 | 0.717 | 0.0184 | 0.985 | > 5 | 0.932 | > 5.12 | 0.936 | > 10.2 | 0.983 | > 0.5 | 0.77 | 1760 | 0.861 | > 10 | 0.982 | > 2 |
| SK-MEL-30 (melanoma, adherent) | 0.934 | > 10.2 | 0.635 | 0.00965 | 0.984 | > 5 | 0.939 | > 5.12 | 0.986 | > 10.2 | 0.933 | > 0.5 | 0.414 | 143 | 0.964 | > 10 | 0.938 | > 2 |
| SK-MES-1 (lung squamous cell carcinoma, adherent) | 0.937 | > 10.2 | 0.57 | 0.00634 | 0.936 | > 5 | 0.983 | > 5.12 | 0.892 | > 10.2 | 0.944 | > 0.5 | 0.88 | > 4000 | 0.954 | > 10 | 0.958 | > 2 |

From the supplement of paper PMC4967469
